# The supplement of paper PMC3334620
# Whole data set: some 33,000 sequences, median “E-score (-0.5 to 0.5)” near -0.043, cut for the highest 2% near 0.37. The list shows a part of the results.
# Molecular target: T1, Upc2 (UniProt Q12151)
# T1 sequence: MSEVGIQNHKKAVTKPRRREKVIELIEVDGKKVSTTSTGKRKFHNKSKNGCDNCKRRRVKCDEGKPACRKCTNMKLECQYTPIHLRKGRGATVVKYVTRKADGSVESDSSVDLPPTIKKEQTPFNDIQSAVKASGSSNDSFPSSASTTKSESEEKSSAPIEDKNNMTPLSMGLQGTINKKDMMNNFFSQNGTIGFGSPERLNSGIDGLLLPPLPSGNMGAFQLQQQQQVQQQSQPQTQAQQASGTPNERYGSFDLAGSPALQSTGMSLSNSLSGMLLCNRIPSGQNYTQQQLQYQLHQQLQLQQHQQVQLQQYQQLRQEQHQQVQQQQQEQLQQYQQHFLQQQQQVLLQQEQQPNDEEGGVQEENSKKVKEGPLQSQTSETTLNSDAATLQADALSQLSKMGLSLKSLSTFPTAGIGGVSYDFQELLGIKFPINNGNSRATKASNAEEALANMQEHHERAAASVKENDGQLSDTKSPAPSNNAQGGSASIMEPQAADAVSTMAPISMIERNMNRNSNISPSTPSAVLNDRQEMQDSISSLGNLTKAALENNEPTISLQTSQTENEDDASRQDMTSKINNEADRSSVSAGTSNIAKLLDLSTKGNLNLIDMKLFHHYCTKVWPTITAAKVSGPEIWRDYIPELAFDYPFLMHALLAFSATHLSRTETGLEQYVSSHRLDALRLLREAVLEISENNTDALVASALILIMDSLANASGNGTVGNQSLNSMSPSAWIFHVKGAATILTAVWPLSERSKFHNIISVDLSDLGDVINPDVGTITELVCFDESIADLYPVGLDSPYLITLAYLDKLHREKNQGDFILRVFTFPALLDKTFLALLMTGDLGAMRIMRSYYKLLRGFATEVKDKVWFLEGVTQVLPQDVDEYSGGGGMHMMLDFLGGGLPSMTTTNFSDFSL
# Test: PBM E-score (8-mer binding enrichment) (E-score (-0.5 to 0.5)); higher = stronger / more preferred TF binding; most listed sequences are background and not binding sites
# Details: protein concentration: 200 nM; construct: GST-full length
# In short: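 Universal all-10-mer Agilent arrays, double-stranded by primer extension on fresh or once-stripped slides, were probed with about 100-200 nM GST-tagged yeast transcription factors made by PURExpress. Fluorescent anti-GST detected bound protein, and masliner normalised the scans. E-scores from the Universal PBM Analysis Suite were given to each ungapped eight-base word pooled with its reverse complement.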
row,Sequence,PBM E-score
1,CCGAAAGG,-0.132
2,CACGACGG,0.129
3,CGATAGCC,0.0375
4,AGGTGAAT,-0.0674
5,ACATCCAG,-0.124
6,AAGGCGCA,-0.0582
7,AGAGAAAC,-0.0899
8,CCAATGCA,-0.299
9,GTAAACGA,0.491
10,AACCGGCC,-0.0174
11,GTGACTGA,-0.173
12,GCGAGAAA,0.0818
13,TAACGTCA,0.0914
14,CTGGGGCA,-0.2
15,AGAACCCC,-0.182
16,CTGTATGC,-0.0519
17,GAAAGATC,0.00511
18,GGGGGGAA,-0.152
19,CAATGAGG,0.0308
20,AGTGCTAT,-0.0648
21,CAATAGGC,-0.0765
22,GGAAGGTA,-0.00925
23,GAGTAACC,0.101
24,GAGGGGCA,-0.0852
25,CATCAATC,-0.126

row,Sequence,PBM E-score
1,AGTGTGTG,0.0245
2,GAGGAACC,-0.0783
3,CGCCTTCA,-0.251
4,AACTGGAA,-0.118
5,CCGCTTGC,-0.0954
6,AGCTCAGA,-0.0803
7,CAGGTTCC,-0.184
8,GGTCTTAC,-0.0349
9,ACTTGGCC,-0.0135
10,AATATGGA,-0.139
11,ATACAGCC,-0.0675
12,CACCCCGC,0.0339
13,ACGCACCT,-0.0479
14,CTTGTGAC,-0.206
15,CCATACCA,-0.0836
16,ATGGACCG,-0.0313
17,CATGGTTC,-0.0162
18,ATTGAGGC,-0.127
19,GGGCAATA,-0.00082
20,ATATCAGC,-0.156
21,CGACTTTA,0.17
22,TGAATGAA,0.0389
23,AAAGACGG,-0.124
24,AACGTGTA,0.103
25,GCGGTGTA,0.0914

row,Sequence,PBM E-score
1,CTAGAAAG,-0.198
2,AGATACCT,-0.116
3,CTAAACTC,0.0155
4,TCATTACA,0.0082
5,ATTACATA,0.0413
6,AGATTACT,-0.177
7,CGGGCAGA,-0.0216
8,CACTCAAA,0.0904
9,GAACAACA,-0.135
10,AGAAGACG,-0.00555
11,CAGTGCGG,-0.121
12,CTTTCTAC,0.0545
13,AACACATG,-0.127
14,CTCAGCAA,0.0107
15,CAGGGCTA,-0.257
16,AGTCTATA,0.0445
17,AATTAAAG,-0.145
18,ACCGTGGC,-0.0829
19,ATGATGAC,-0.184
20,AATCAAAG,-0.17
21,AAGCGAAA,0.187
22,GACGGCGA,-0.045
23,ACATTCCG,0.00995
24,AACGAAGT,0.415
25,ACCATCTG,-0.225

row,Sequence,PBM E-score
1,CCTTCCTA,-0.235
2,AGAACGCG,0.138
3,CCAGGAAA,-0.203
4,CGCGCGAA,0.143
5,CGCTTCTA,0.0236
6,TGCTAGCA,-0.0249
7,GCACACTA,-0.135
8,CCGCCTTC,-0.0732
9,GCGTTTAA,0.4
10,AAGTGCGA,-0.0126
11,CCCGAAGG,0.0291
12,CCACTGTC,-0.081
13,AGTTAAAG,0.0271
14,GACTACTC,0.111
15,CCGTGCAG,-0.139
16,ATCTTGCA,0.138
17,CCGGACAC,-0.171
18,GAAGCACC,-0.184
19,CGTCCAGA,-0.142
20,GCATATCC,0.0618
21,ACGTGTAC,0.231
22,AGTATAAT,-0.00506
23,CTCGCCGA,0.0861
24,ATCGGATC,0.0907
25,AGGCGTTA,-0.15

row,Sequence,PBM E-score
1,CAATCCAA,0.054
2,CAAAGATA,-0.0625
3,TACTACCA,0.00692
4,ACCGTATA,0.478
5,AGACGGAT,0.0754
6,ATAGAAAA,0.00696
7,AAGCCGCT,-0.0951
8,CAGAGGCA,-0.142
9,CGAATTCG,0.0977
10,GAACGCGA,0.176
11,AGAGCAGA,-0.0123
12,ATATGTAC,0.147
13,CGCGCACC,0.0323
14,CCTGAATA,0.088
15,CACACAGC,-0.105
16,AATATTGC,0.24
17,AATGACGA,-0.0382
18,AGCGCTCA,0.0243
19,CCTTGTCA,-0.199
20,AAATGTGA,-0.0378
21,AGATACTG,-0.033
22,ACTCTCAC,-0.136
23,CATAATAA,0.128
24,AATTGCGT,0.117
25,CCAAATGA,0.109

row,Sequence,PBM E-score
1,GCAGTCAA,-0.123
2,AGCTGGGC,-0.21
3,AGCGGAAT,-0.0346
4,CGAACGCC,0.0792
5,GATCATTA,0.0302
6,ACACGGTC,-0.099
7,AGTTACAG,-0.052
8,CACGATAG,-0.187
9,AATATTTA,0.16
10,ATGCACTG,-0.118
11,AAATTCGA,-0.128
12,GGCATTGA,-0.0844
13,AGATCGAC,0.0551
14,TCCACACA,-0.073
15,CTAAAAAG,-0.104
16,CAGTGTCG,-0.012
17,GCCAAGGC,-0.232
18,AGAACAAT,-0.00179
19,CGTATAGC,0.483
20,ATTGGGAG,-0.172
21,ACCAAAGA,-0.0336
22,TAGCAATA,0.161
23,CACTACTC,-0.101
24,CCAACACC,-0.278
25,AAAGTGTG,-0.187

row,Sequence,PBM E-score
1,AAAACTCC,-0.112
2,GTCGTAAA,0.477
3,ATTCCCGC,-0.0396
4,CCCGCTGA,-0.275
5,CCCTATTC,-0.046
6,AGGAGCCG,-0.224
7,AGAGAACA,-0.0853
8,ACATAGCC,-0.329
9,AACTATTC,0.0109
10,ACTCCACC,-0.147
11,GGTGGTCA,-0.188
12,TGTGGAAA,-0.0664
13,ATCTTTTC,-0.0144
14,AGGCAGAG,-0.131
15,AAGCCCTA,-0.0838
16,CTTAACAC,-0.0502
17,CCCTGCAA,-0.0508
18,ACGGGAGT,0.175
19,CACCTCGC,0.0282
20,AGTTATTG,-0.102
21,CAAGCGTA,0.266
22,GTTATCGA,0.0519
